Among all 350,000 compounds or so, about 31,000 (8.9%) were called active. The inconclusive results got no clear call from the source; some entries with a clear call stand among them for comparison. Calls follow the shape of the dose curve; as a rule, active = well fitted inhibition curve with a large enough effect; inconclusive = small, poorly fitted or top-dose-only effect; inactive = no such curve, though single readings can be large or run the other way. Where the call is inconclusive, the potency comes from a doubtful curve fit.
Molecular target: Histone-lysine N-methyltransferase EHMT2 (Homo sapiens) (UniProt Q96KQ7)
Chain of UniProt Q96KQ7 (Q96KQ7 whole entry, looked up): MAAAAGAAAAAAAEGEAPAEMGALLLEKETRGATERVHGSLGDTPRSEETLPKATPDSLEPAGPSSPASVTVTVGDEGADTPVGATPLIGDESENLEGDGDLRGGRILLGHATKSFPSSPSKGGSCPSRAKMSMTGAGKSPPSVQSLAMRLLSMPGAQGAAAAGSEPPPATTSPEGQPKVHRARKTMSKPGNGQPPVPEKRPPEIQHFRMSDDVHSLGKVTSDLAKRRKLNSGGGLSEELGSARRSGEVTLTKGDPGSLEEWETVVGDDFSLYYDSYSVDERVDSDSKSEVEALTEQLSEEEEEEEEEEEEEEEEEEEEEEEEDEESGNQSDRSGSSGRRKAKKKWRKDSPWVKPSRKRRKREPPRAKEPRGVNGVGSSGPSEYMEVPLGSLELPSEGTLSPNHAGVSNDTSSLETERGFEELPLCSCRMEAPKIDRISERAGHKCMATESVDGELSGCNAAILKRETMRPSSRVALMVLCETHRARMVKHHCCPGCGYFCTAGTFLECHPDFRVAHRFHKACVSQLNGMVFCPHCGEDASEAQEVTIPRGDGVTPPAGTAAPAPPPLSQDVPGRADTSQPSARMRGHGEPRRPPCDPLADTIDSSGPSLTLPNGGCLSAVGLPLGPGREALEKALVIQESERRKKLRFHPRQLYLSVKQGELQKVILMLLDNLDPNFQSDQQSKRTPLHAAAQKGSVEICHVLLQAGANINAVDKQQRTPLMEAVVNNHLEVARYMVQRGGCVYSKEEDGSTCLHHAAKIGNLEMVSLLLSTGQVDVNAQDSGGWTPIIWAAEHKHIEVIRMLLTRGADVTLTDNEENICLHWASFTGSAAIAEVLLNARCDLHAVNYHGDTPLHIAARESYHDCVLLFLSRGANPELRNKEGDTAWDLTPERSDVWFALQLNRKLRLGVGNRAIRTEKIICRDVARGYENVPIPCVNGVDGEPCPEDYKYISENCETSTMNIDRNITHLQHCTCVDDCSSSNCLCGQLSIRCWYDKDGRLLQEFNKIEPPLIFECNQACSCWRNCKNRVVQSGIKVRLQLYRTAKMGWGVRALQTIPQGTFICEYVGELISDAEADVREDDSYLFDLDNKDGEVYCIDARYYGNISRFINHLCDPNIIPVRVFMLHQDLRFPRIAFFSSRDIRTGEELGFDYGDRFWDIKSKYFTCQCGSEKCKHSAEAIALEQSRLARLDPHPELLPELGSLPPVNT
Test: qHTS Assay for Inhibitors of Histone Lysine Methyltransferase G9a; also: nearly all actives have a fitted effect of over 75% in size
Conditions: G9a H3K9 monomethylation, AlphaScreen, 2 h; activity, negative = inhibition: at 59 µM (top of the series) unless noted
In short: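 AlphaScreen detection with an anti-monomethyl H3K9 antibody quantified product after a 2 h room-temperature reaction containing 500 nM biotinylated H3K9 peptide, 20 µM SAM and 20 nM enzyme, which had been preincubated 15 min with compound.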
% is scaled to controls: 0 for no effect and ±100 for the full control effect; potency is read from the fitted curve at half-maximal effect; tags tell the direction and shape of the fitted curve.

Compound | activity, negative = inhibition | Potency
CCN(CC)CC(=O)NCC1(c2ccccc2)CCCC1 | inactive: -41.4% [at 102 µM] | 
CC(=O)c1ccc(Nc2cc(C)nc3ccccc23)cc1 |  | inconclusive: 44.7 µM [inhibitor, partial curve]
COC(=O)CSC1=NS(=O)(=O)c2ccccc21 |  | active: 1.41 µM
NC(=O)CN1CCN(Cc2ccc3c(c2)OCO3)CC1 | inactive: -1.21% [at 102 µM] | 
O=C(COC(=O)c1ccc([N+](=O)[O-])cc1Cl)NCc1ccco1 | inactive: 2.66% [at 12.7 µM] | 
Cc1cc(C)n2nc(C(=O)OCC(=O)c3ccccc3Cl)nc2n1 |  | inconclusive: 39.8 µM [inhibitor, single point]
CC(=O)N1CCC(C(=O)Nc2ccc(S(=O)(=O)N3CCCC(C)C3)cc2)CC1 (stereo not drawn) |  | inconclusive: 44.7 µM [inhibitor, partial curve, poor fit]
Cc1ccc(-c2cc(C(=O)NCc3cccnc3)no2)cc1 |  | inconclusive: 2.24 µM [inhibitor, full curve]
Cc1nn(CC(=O)N(C)C2CCC(C)CC2)c(C)c1S(=O)(=O)N(C)C (stereo not drawn) |  | inconclusive: 10 µM [inhibitor, partial curve, poor fit]
O=C(O)c1ccc(NS(=O)(=O)c2cc(C(=O)O)ccc2Br)cc1 |  | inconclusive: 50.1 µM [inhibitor, partial curve]
COc1ccccc1C(=O)COC(=O)c1cc([N+](=O)[O-])ccc1N1CCOCC1 |  | inconclusive: 44.7 µM [inhibitor, partial curve]
Cc1cccc(CN2CCN(Cc3ccc4nonc4c3)CC2CCO)n1 (stereo not drawn) |  | inconclusive: 28.2 µM [inhibitor, partial curve, poor fit]
O=C(Nc1ccccc1)N1CC2(CCN(C(=O)c3cc(C(F)(F)F)cc(C(F)(F)F)c3)CC2)C1 | inactive: 9.84% [at 12.7 µM] | 
Cc1ccc(/C=N/NC(=O)CSc2nnc(-c3ccc(Cl)cc3)n2-c2ccccc2)o1 |  | inconclusive: 39.8 µM [inhibitor, single point]
COc1ccc(NC(=O)c2cc3c(s2)CCC(C)C3)cc1S(=O)(=O)N1CCOCC1 (stereo not drawn) |  | inconclusive: 25.1 µM [inhibitor, partial curve, poor fit]
COCC(C)NS(=O)(=O)c1ccc(NC(=O)c2ccccn2)cc1 (stereo not drawn) | inconclusive: -58.8% [inhibitor] | 
Cc1ccc(C)c2[nH]c(=O)c(CCNC(=O)c3cc4ccccc4o3)cc12 |  | inconclusive: 17.8 µM [inhibitor, full curve, poor fit]
O=C(CCC1COc2ccccc2O1)Nc1ncccc1O (stereo not drawn) | inactive: -4.79% | 
Cc1ccc(S(=O)(=O)/N=C(\Nc2cc(C)on2)c2ccc(Cl)cc2)cc1 |  | inconclusive: 56.2 µM [inhibitor, partial curve]
Cc1cc2nc3c(=O)n(C4CCCCC4)c(=O)[nH]c3nc2cc1N |  | active: 1.26 µM
O=C(CN1CCCCCC1)Nc1ccc(Br)cc1 | inactive: -7.66% [at 12.7 µM] | 
Cc1ccc(C)n1-c1ccc(C(=O)NN)cc1 | inactive: 45.1% | 
COc1cc(OC)c(NC(=O)Nc2cccc(OCc3cc(=O)n4ccccc4n3)c2)cc1Cl |  | inconclusive: 11.2 µM [inhibitor, partial curve, poor fit]

Compound | activity, negative = inhibition | Potency
Cc1ccnc2nc(C(=O)OCC(=O)c3c[nH]c4ccccc34)nn12 |  | inconclusive: 50.1 µM [inhibitor, partial curve]
O=C(CN1CCc2ccccc21)Nc1ccc2c(c1)OCO2 |  | inconclusive: 2.24 µM [inhibitor, partial curve, poor fit]
Cc1cccc(NC(=O)CS(=O)CC(=O)Nc2cnc3ccccc3c2)c1C (stereo not drawn) | inactive: -2.85% [at 102 µM] | 
O=C(CCC(=O)c1cccs1)Nc1ncccc1O |  | inconclusive: 89.1 µM [inhibitor, partial curve, poor fit]
CCSc1nnc(NC(=O)C(NC(=O)c2ccc(Cl)cc2)C(C)C)s1 (stereo not drawn) | inactive: -0.48% | 
Cn1nnc(NC(=O)/C=C/c2ccco2)n1 |  | inconclusive: 39.8 µM [inhibitor, single point]
Cc1ccc(S(=O)(=O)N2CCCCC2)cc1C(=O)OC1CCCCC1=O (stereo not drawn) |  | inconclusive: 89.1 µM [inhibitor, single point]
CNC(=S)N1N=C(c2ccccc2)CC1c1ccccc1Cl (stereo not drawn) |  | inconclusive: 39.8 µM [inhibitor, partial curve, poor fit]
CCC(=O)Nc1cccc(-c2cn3ccsc3n2)c1 |  | inconclusive: 7.94 µM [inhibitor, single point]
COc1ccc(NC(=O)Cc2nnc(SCC(=O)NC3CCCC3)n2C)cc1 |  | inconclusive: 17.8 µM [inhibitor, partial curve]
CCc1ccc2c(c1)C(c1ccc([N+](=O)[O-])cc1)=NNC(c1ccc(C)cc1)=N2 |  | inconclusive: 1 µM [inhibitor, full curve, poor fit]
Cc1ccccc1C(=O)N1CCN(c2ccccn2)CC1 |  | inconclusive: 25.1 µM [inhibitor, partial curve, poor fit]
COC(=O)c1cccc(NC(=O)COc2cccc([N+](=O)[O-])c2)c1 |  | inconclusive: 17.8 µM [inhibitor, partial curve, poor fit]
COc1ccc(N2CCN(C(=O)CSc3nnc4c(C)cc5ccc(C)c(C)c5n34)CC2)cc1 |  | inconclusive: 39.8 µM [inhibitor, single point]
O=C(CSc1ccccn1)Nc1ccc2c(c1)CCC2 |  | inconclusive: 44.7 µM [inhibitor, partial curve]
O=C(Nc1ncc([N+](=O)[O-])s1)c1ccc2c(c1)OCO2 |  | inconclusive: 22.4 µM [inhibitor, single point]
O=C(NCCCNC(=O)c1cnccn1)c1ccc(Br)cc1 |  | inconclusive: 10 µM [inhibitor, partial curve, poor fit]
Cc1cc(Cl)ccc1OCC(=O)N(Cc1ccco1)C1CCS(=O)(=O)C1 (stereo not drawn) | inactive: -22.9% [at 102 µM] | 
Cn1nc(C(=O)NNC(=O)c2ccc(Cl)c(S(N)(=O)=O)c2)c2ccccc2c1=O |  | inconclusive: 25.1 µM [inhibitor, single point]
Cc1ccc(C)c(OCCn2c(CCNC(=O)C3CCCCC3)nc3ccccc32)c1 | inactive: 1.57% | 
O=C1c2ccccc2NC(c2cccc(O)c2)N1O (stereo not drawn) |  | active: 44.7 µM
O=C1CC(N2CCCCC2)C(=O)N1c1ccccc1 (stereo not drawn) |  | inconclusive: 39.8 µM [inhibitor, single point]
CCn1c(/C=C/Nc2ccccc2)[n+](CC)c2cc(Cl)c(Cl)cc21 |  | inconclusive: 25.1 µM [inhibitor, single point]

Compound | activity, negative = inhibition | Potency
CC1=NN(c2nc(C)cc(C)n2)C(=O)C1CCC(C)C (stereo not drawn) | inactive: 44.3% [at 102 µM] | 
COc1ccc(NC(=O)c2cc(-c3ccco3)on2)cc1 |  | inconclusive: 50.1 µM [inhibitor, partial curve]
CCCNC(=O)CN1CCN(c2cc3ccccc3c(Cl)n2)CC1 |  | inconclusive: 89.1 µM [inhibitor, single point]
O=C(Nc1ccc(-n2nncc2-c2ccco2)cc1)c1cc2ccccc2oc1=O |  | inconclusive: 50.1 µM [inhibitor, partial curve, poor fit]
COc1cccc(CNCc2cccnc2)c1OCc1ccccc1 |  | active: 79.4 µM
CN1CCN(C(=O)Nc2ccc3c(c2)N(C)C(=O)c2ccccc2S3)CC1 |  | inconclusive: 89.1 µM [inhibitor, single point]
COc1ccc(NC(=S)NCCCCCC(=O)C[N+](=O)[O-])cc1 |  | active: 22.4 µM
COc1ccccc1/C=C1\N=C(C(C)(C)C)OC1=O | inactive: 84% [at 102 µM] | 
Cc1ccccc1Cn1nc(C)c(NC(=O)C2(C)CC2(Cl)Cl)c1C (stereo not drawn) |  | inconclusive: 20 µM [inhibitor, partial curve, poor fit]
Cc1cc(C)nc(NS(=O)(=O)c2ccc(NC(=O)CCCN3C(=O)c4ccccc4C3=O)cc2)n1 | inactive: 6.91% [at 102 µM] | 
CCN(CC(=O)NC(=O)NCc1ccco1)Cc1ccccc1 |  | inconclusive: 79.4 µM [inhibitor, partial curve, poor fit]
CC1=CC(=C(C#N)c2nc3ccccc3s2)C=C(C)N1c1ccc(F)cc1F |  | inconclusive: 70.8 µM [inhibitor, single point]
CC(C)CC(COCc1cccc(C(F)(F)F)c1)N1CCN(C(=O)c2cccc(C(F)(F)F)c2)CCC1=O (stereo not drawn) |  | inconclusive: 89.1 µM [inhibitor, single point]
Cc1ccc(NS(=O)(=O)c2ccc3[nH]c4c(c3c2)CCCC4)cc1N(C)C |  | inconclusive: 14.1 µM [inhibitor, partial curve, poor fit]
Cc1ccc(C(=O)NCC(c2ccco2)N2CCc3ccccc32)cc1 (stereo not drawn) |  | active: 50.1 µM
CN1CCc2nc(NC(=O)c3cccc(OC(F)F)c3)sc2C1 |  | inconclusive: 89.1 µM [inhibitor, single point]
CCOc1ccc(C2C(C(=O)c3ccc(C)o3)=C(O)C(=O)N2c2nc(C)c(C(=O)OC)s2)cc1 (stereo not drawn) |  | active: 10 µM
C=CCNC(=S)Nc1sc2c(c1C(=O)OCC)CC(C)(CC)OC2 (stereo not drawn) |  | inconclusive: 1.58 µM [inhibitor, partial curve, poor fit]
O=C(NCc1ccccc1CN1CCCC1)c1cccc(S(=O)(=O)Nc2ccc(F)cc2)c1 | inactive: -13% | 
COc1ccc(OCCC(=O)OCC(=O)NCc2ccc(F)cc2)cc1 | inactive: 6.65% [at 102 µM] | 
CC1CCC(NC(=O)c2cccc(S(=O)(=O)N3CCN(c4ccccc4)CC3)c2)CC1 (stereo not drawn) |  | inconclusive: 89.1 µM [inhibitor, partial curve, poor fit]
COc1ccc(NC(=O)CSc2c(C)nn(-c3nnc(C)c(=O)[nH]3)c2C)cc1 |  | active: 12.6 µM

— PubChem BioAssay AID504332 (National Center for Advancing Translational Sciences (NCATS), 2011)
